# According to PubChem BioAssay AID651820 (National Center for Advancing Translational Sciences (NCATS), 2012):
# Where “and” joins values, the source holds several entries; their conditions need not be identical. Equal entries are not always repeated. The campaign covered roughly 340,000 compounds. About 12,000 (3.5%) were called active. The inconclusive results got no clear call from the source; some entries with a clear call stand among them for comparison. The call rests on the fitted dose curve; in most records, active means well fitted inhibition curve with a large enough effect; inconclusive means small, poorly fitted or top-dose-only effect, or another doubt; inactive means no such curve, though single readings can be large or run the other way. Potencies beside an inconclusive call are fits to weak or partial responses and may not hold up.
# Experiment: qHTS Assay for Inhibitors of Hepatitis C Virus (HCV)
# Settings: Huh7.5.1 HCVcc-Cre (HCVcc is cell-culture hepatitis C virus) infection, luciferase reporter, 44 h; activity change, negative = inhibition: at 41.8 µM (top of the series) unless noted
# Procedure, shortened: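 Infectious HCV cell culture screen: compound-treated cells (1,000/well, pre-plated 4 h) are infected with HCVcc-Cre at roughly 0.5 moi and grown 44 h. Infection is quantified by luciferase signal after 15 min substrate incubation at room temperature.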
# On the % scale 0 is the no-effect control and ±100 the full control effect; potency means the concentration at half of the fitted maximal effect; tags describe the fitted curve by direction and shape.
Structure (SMILES),Potency,"activity change, negative = inhibition"
Cc1cc(Cl)c(OCCCNC2CCCC2)c(Br)c1,"inconclusive: 11.2 µM [inhibitor, partial curve]",–
C/C(=N\Nc1ncc(Cl)cc1Cl)c1ccc(OC(F)F)cc1,–,inactive: -7.35%
CCOc1ccccc1CNC(=O)c1nn(C)c2c1CS(=O)(=O)c1ccccc1-2,"inconclusive: 11.2 µM [inhibitor, partial curve]",–
Cc1ccc2nc(CSc3nnc4ccccn34)cc(=O)n2c1,–,inactive: 12.1%
COc1ccc(CN2CCCCCC2)c(C)c1C,"inconclusive: 31.6 µM [inhibitor, single point]",–
O=c1oc2cc(OCc3ccc(F)cc3F)ccc2cc1-c1ccc2ccccc2n1,–,inactive: 1.31% [at 0.335 µM]
CC(C)c1ccc(NC(=O)c2cc(S(=O)(=O)N3CCCC3)c[nH]2)cc1,"inconclusive: 31.6 µM [inhibitor, single point]",–
O=c1[nH]c(=S)n(C2CC2)c(O)c1/C=N/Nc1cccc2ccccc12,–,inactive: -1.61%
Oc1ccc(-c2csc(-c3ccccc3)n2)cc1O,active: 4.47 µM,–
CN=C1c2cc3cc(OC)ccc3n2CCN1Cc1ccccc1,–,inactive: -29.1%
O=C(c1cc(F)ccc1F)C1CCCN(Cc2cc(Cl)ccc2O)C1 (centres undefined),"inconclusive: 31.6 µM [inhibitor, single point]",–
CCc1ccc2oc(-c3cc(N)ccc3Cl)nc2c1,–,inactive: -6.63%
CC(=O)Nc1ccc(CC(=O)NCCC(c2ccccc2)c2ccccc2)cc1,"inconclusive: 10 µM [inhibitor, single point]",–
COc1ccc(Cc2noc(-c3ccc(OC)c(OC)c3)n2)cc1OC,"inconclusive: 12.6 µM [inhibitor, partial curve]",–
CN(C)CCCn1c(=O)n(Cc2ccccc2)c(=O)c2c3c(sc21)CCCCC3,"inconclusive: 22.4 µM [inhibitor, single point]",–
c1ccc(-c2nnc3sc(-c4csc5c4CCCC5)nn23)cc1,"inconclusive: 10 µM [inhibitor, partial curve]",–
CSc1ccc(CN(C)C(=O)CNC(=O)c2ccc3c(c2)OCO3)cc1,–,inactive: -3.8%
CC(=O)Nc1ccc(S(=O)(=O)N2CCSC2c2ccc(Cl)cc2)cc1 (centres undefined),"inconclusive: 11.2 µM [inhibitor, partial curve]",–
CCc1cc2c(SCC(=O)Nc3ccc(NC(C)=O)cc3)ncnc2s1,"inconclusive: 28.2 µM [inhibitor, single point]",–
Cc1ccc2sc(N(CCCN(C)C)C(=O)c3ccc(S(=O)(=O)N(C)C4CCCCC4)cc3)nc2c1C,"inconclusive: 11.2 µM [inhibitor, partial curve]",–
Cc1ccccc1Nc1nc(N)nc(COC(=O)c2cccc(S(=O)(=O)N(C)C)c2)n1,"inconclusive: 1.78 µM [inhibitor, partial curve]",–
Cc1ccccc1-c1nc(CS(=O)CC(=O)NCCc2ccc(Cl)cc2)c(C)o1 (centres undefined),"inconclusive: 31.6 µM [inhibitor, single point]",–
CCOc1ccc(C(=O)C(C)=O)c(OCC)c1,"inconclusive: 10 µM [inhibitor, partial curve]",–

Structure (SMILES),Potency,"activity change, negative = inhibition"
CS(=O)(=O)N1CCN(CC(=O)NC2CCCCC2)CC1,–,inactive: 4.4%
CCOc1ccccc1C(=O)Nc1ccc(C(=O)c2ccccc2)cc1,"inconclusive: 11.2 µM [inhibitor, partial curve]",–
O=C(CCc1ccccc1Cl)Nc1cccc(S(=O)(=O)N2CCCC2)c1,"inconclusive: 7.08 µM [inhibitor, partial curve, poor fit]",–
COc1ccc(NC(=O)Cn2nnc3sc4c(c3c2=O)CC(C)(C)OC4)cc1,–,inactive: -22.2%
COC(=O)c1nn(-c2ccccc2)c(Sc2ccc(Cl)cc2)c1/C=N/O,"inconclusive: 11.2 µM [inhibitor, partial curve]",–
Cc1cc(C)cc(OCC(=O)Nc2ccccc2C(=O)NCc2ccco2)c1,"inconclusive: 2 µM [inhibitor, full curve]",–
Cc1ccc(-c2noc(CCC(=O)Nc3ccccc3C)n2)cc1,"inconclusive: 0.562 µM [inhibitor, full curve]",–
Cc1ccc(C2(c3noc(CN(C)Cc4cnn(C)c4)n3)CCCC2)cc1,"inconclusive: 12.6 µM [inhibitor, single point]",–
Cc1ccc([N+](=O)[O-])cc1S(=O)(=O)Nc1cccc(-c2ccc(N3CCOCC3)nn2)c1,"inconclusive: 2.82 µM [inhibitor, single point]",–
C#Cc1ccc([C@@H]2C=C(C(=O)N3CCN(Cc4ccc5c(c4)OCO5)CC3)O[C@H](OCCCCO)C2)cc1,–,inactive: -15.4% [at 8.37 µM]
COc1ccc(CN(CCC(c2ccc(F)cc2)C2CCOC(C)(C)C2)C(=O)c2ccco2)cc1 (centres undefined),"inconclusive: 31.6 µM [inhibitor, single point] and inconclusive: 14.1 µM [inhibitor, single point]",–
CCOC(=O)c1sc(Nc2nc3c(OC)cccc3s2)cc1C,active: 10 µM,–
CCC(NC(=O)c1cncc(Br)c1)c1ccccc1 (centres undefined),–,inactive: -13.3%
Cc1ccc2nnn(Cc3cccc(C(C)(C)C)c3O)c2c1,"inconclusive: 31.6 µM [inhibitor, single point]",–
CC(C)c1ccc(NC(=O)C(c2ccc3c(c2)OCO3)N2CCC3(CC2)OCCO3)cc1 (centres undefined),"inconclusive: 35.5 µM [inhibitor, partial curve]",–
COc1ccc(S(=O)(=O)NNC(=O)C2Cc3c(ccc4ccccc34)O2)cc1 (centres undefined),"inconclusive: 17.8 µM [inhibitor, partial curve]",–
Cc1cc2nc(C3CCN(Cc4nnnn4Cc4ccccc4)CC3)[nH]c2cc1C,"inconclusive: 10 µM [inhibitor, partial curve, poor fit]",–
c1ccc(C2C3=C(CCCC3)Nc3ncnn32)cc1 (centres undefined),–,inactive: 10.2%
COc1ccc2[nH]c3c(NCc4ccco4)ncnc3c2c1,"inconclusive: 25.1 µM [inhibitor, partial curve]",–
Cc1ccc2c(c1)N(CCC(=O)NCCCN1CCCC1)C(=O)C(C)O2 (centres undefined),–,inactive: -12.1%
Cc1nc(SCC(=O)Nc2cccc(S(=O)(=O)N3CCOCC3)c2)nc(C)c1C,–,inconclusive: -39.1% [inhibitor]
O=C(CCNS(=O)(=O)c1ccccc1F)NC1CCCCCC1,–,inactive: 1.07%
O=C(Oc1ccc(Br)cc1C(=S)N1CCCC1)c1ccccc1F,–,inactive: 1.5%

Structure (SMILES),Potency,"activity change, negative = inhibition"
Cc1ccc(NC(=O)CNc2cccc(C)c2C)c(C)c1,"inconclusive: 31.6 µM [inhibitor, single point]",–
CCn1c(CCCCc2n[nH]c(=S)n2CC)n[nH]c1=S,–,inactive: 7.2%
Cc1ccc(NC(=O)CN2CCc3cc4c(cc3C2C)OCCCO4)cc1C (centres undefined),"inconclusive: 31.6 µM [inhibitor, single point]",–
COc1cc(/C=C2/CCCC(C(=O)C(F)(F)F)=C2O)ccc1O,–,inactive: 5.79%
O=C(c1sccc1-c1ccccc1)N1CCN(S(=O)(=O)c2ccccc2F)CC1,"inconclusive: 31.6 µM [inhibitor, single point]",–
O=C(Nc1ccc(S(=O)(=O)N2CCCC2)cc1)C1CCCCC1,–,inactive: -19.4%
COc1ccc(-c2noc(CCCCC(=O)N3CCN(c4cc(C)ccc4C)CC3)n2)cc1,"inconclusive: 35.5 µM [inhibitor, partial curve, poor fit]",–
COc1ccc([C@H]2CC(=O)C=C(c3cc(OC)ccc3OC)C2)cc1,"inconclusive: 6.31 µM [inhibitor, full curve]",–
Cc1nc2c(C(=O)NCc3ccco3)cnn2c(C)c1Cc1ccc(F)cc1Cl,active: 12.6 µM,–
Cc1noc(C)c1COC(=O)c1csc2c1CCC(C)C2 (centres undefined),"inconclusive: 11.2 µM [inhibitor, partial curve]",–
CCOC(=O)C1CCCCN1S(=O)(=O)c1ccc2c(c1)CC(C)N2C(=O)C1CCC1 (centres undefined),"inconclusive: 14.1 µM [inhibitor, single point]",–
CCSC1=C(C#N)C(c2ccc(F)cc2)CC(=O)N1 (centres undefined),"inconclusive: 22.4 µM [inhibitor, single point]",–
CS(=O)(=O)N(Cc1ccccc1)c1ccc(C(=O)NCCSCc2ccco2)cc1,"inconclusive: 0.794 µM [inhibitor, full curve, poor fit]",–
Cc1cccc(Cc2c(C)nc3c(C(=O)NCc4ccco4)cnn3c2C)c1,"inconclusive: 31.6 µM [inhibitor, single point]",–
CN1CCN(CCC(=O)Nc2ccc(OCc3ccccc3)cc2)CC1,"inconclusive: 11.2 µM [inhibitor, partial curve]",–
COC(=O)c1ccn(CC(=O)NC2CCCCC2)n1,–,inactive: 15.7%
O=C(CCCCCn1c(=S)[nH]c2ccc(N3CCOCC3)cc2c1=O)NCc1ccccc1,"inconclusive: 22.4 µM [inhibitor, single point]",–
Cc1ccc(CCNC(=O)CN2C(=O)COc3ccc(S(=O)(=O)N4CCC(C)CC4)cc32)cc1,"inconclusive: 10 µM [inhibitor, partial curve]",–
CCN(CC)C(=O)C1c2ccccc2Oc2ccccc21,"inconclusive: 22.4 µM [inhibitor, partial curve]",–
Cc1ccc(NC(=O)COC(=O)c2cccc3c2C(=O)c2ccccc2C3=O)c(C)c1,"inconclusive: 25.1 µM [inhibitor, partial curve]",–
CCCc1cc(NCCN(C)C)n2c(nc3ccccc32)c1C#N,–,inactive: 6.13%
CCc1cc(=O)oc2cc(C)cc(OCC(=O)NCC3CCC(C(=O)O)CC3)c12 (centres undefined),"inconclusive: 31.6 µM [inhibitor, partial curve, poor fit]",–
CC(C)N(Cc1ccccc1)C(=O)COC(=O)c1ccc2ncsc2c1,"inconclusive: 0.891 µM [inhibitor, full curve, poor fit]",–
